This passage reports enrichment ratio results from a collection of fitness landscapes (doi:10.1126/science.1257360).

The chains are these.
B1: PhoQ; a variant is named by its letters at X, in order, P23837 (parent)
chain: MKKLLRLFFPLSLRVRFLLATAAVVLVLSLAYGMVALIGYSVSFDKTTFRLLRGESNLFYTLAKWENNKLHVELPENIDKQSPTMTLIYDENGQLLWAQRDVPWLMKMIQPDWLKSNGFHEIEADVNDTSLLLSGDHSIQQQLQEVREDDDDAEMTHSVAVNVYPATSRMPKLTIVVVDTIPVELKSSYMVWSWFIYVLSANLLLVIPLLWVAAWWSLRPIEALAKEVRELEEHNRELLNPATTRELTSLVRNLNRLLKSERERYDKYRTTLTDLTHSLKTPLXXLQXXLRSLRSEKMSVSDAEPVMLEQISRISQQIGYYLHRASMRGGTLLSRELHPVAPLLDNLTSALNKVYQRKGVNISLDISPEISFVGEQNDFVEVMGNVLDNACKYCLEFVEISARQTDEHLYIVVEDDGPGIPLSKREVIFDRGQRVDTLRPGQGVGLAVAREITEQYEGKIVAGESMLGGARMEVIFGRQHSAPKDE

The list shows a part of the results.

In this experiment the parent is B1. Nature of the experiment: enrichment ratio after two sorts for PhoP signalling (ratio (wild type AVST 3.29)); higher = more functional. The conditions noted are these: with PhoP (E. coli).
Take SATC: the enrichment ratio is 5.33.

As for NKFF, the enrichment ratio was no more than 0.25.

With PIIF, the enrichment ratio is no more than 0.25.

Take GKRP: the enrichment ratio is no more than 0.25.

Regarding HQTN, the enrichment ratio is no more than 0.25.

Consider FPHA, for which the enrichment ratio was no more than 0.25.

As for GEKD, the enrichment ratio was no more than 0.25.

As to KRNQ, the enrichment ratio was no more than 0.25.

In the case of LHWT, the enrichment ratio is no more than 0.25.

With TGYQ, the enrichment ratio was 15.9.

Turning to DQSN, the enrichment ratio is no more than 0.25.

In the case of WAMI, the enrichment ratio is no more than 0.25.

Take CGQL: the enrichment ratio was determined as 14.3.

For QILQ, the enrichment ratio is no more than 0.25.

On to IIKG, for which the enrichment ratio was no more than 0.25.

Turning to SSMT, the enrichment ratio is 10.9.

With HKFK, the enrichment ratio is no more than 0.25.

For the variant QYHW, the enrichment ratio was no more than 0.25.

In the case of ITGQ, the enrichment ratio is no more than 0.25.

Take QKRH: the enrichment ratio was no more than 0.25.

For PEIE, the enrichment ratio was no more than 0.25.

GSCQ: the enrichment ratio turned out to be 8.75.

As to MLCE, the enrichment ratio was no more than 0.25.

As for PDDW, the enrichment ratio was no more than 0.25.

As to SMTN, the enrichment ratio is 4.88.

Regarding RITD, the enrichment ratio is no more than 0.25.

HGCD: the enrichment ratio was no more than 0.25.

LPRK: the enrichment ratio is no more than 0.25.

On to VNKQ, for which the enrichment ratio is no more than 0.25.

As for FDKD, the enrichment ratio was no more than 0.25.

For the variant YTIV, the enrichment ratio was determined as 0.385.

On to ICTP, for which the enrichment ratio is no more than 0.25.

Regarding MKMP, the enrichment ratio is no more than 0.25.

Consider WISK, for which the enrichment ratio is no more than 0.25.

With IPCS, the enrichment ratio was no more than 0.25.

For WICV, the enrichment ratio is no more than 0.25.

Regarding LYAW, the enrichment ratio is no more than 0.25.

Turning to NKKI, the enrichment ratio is no more than 0.25.

With GVGH, the enrichment ratio was no more than 0.25.

Regarding NKSR, the enrichment ratio was no more than 0.25.

For ILRW, the enrichment ratio was no more than 0.25.

On to SWKE, for which the enrichment ratio is no more than 0.25.

WGWC: the enrichment ratio was no more than 0.25.

In the case of NFCS, the enrichment ratio was no more than 0.25.

As to GFTK, the enrichment ratio is no more than 0.25.

For SYMP, the enrichment ratio is no more than 0.25.

Turning to TQWG, the enrichment ratio was 18.3.

For the variant GFDG, the enrichment ratio is no more than 0.25.

VTYW: the enrichment ratio is no more than 0.25.

Turning to KPMF, the enrichment ratio is no more than 0.25.

In the case of TQMW, the enrichment ratio was 3.21.

As for ADSR, the enrichment ratio is no more than 0.25.

For MRPK, the enrichment ratio is no more than 0.25.

In the case of DDKG, the enrichment ratio is no more than 0.25.

For the variant PENR, the enrichment ratio is no more than 0.25.

With FKPA, the enrichment ratio is no more than 0.25.

Turning to GRHH, the enrichment ratio was no more than 0.25.

For the variant TCIL, the enrichment ratio is no more than 0.25.

In the case of VYNY, the enrichment ratio turned out to be 0.314.

Turning to KIKS, the enrichment ratio was no more than 0.25.

Take METN: the enrichment ratio is 1.27.

In the case of IKDK, the enrichment ratio is no more than 0.25.

On to IWPG, for which the enrichment ratio was no more than 0.25.

For the variant CLFH, the enrichment ratio was no more than 0.25.

For NGFA, the enrichment ratio is no more than 0.25.

As for REFK, the enrichment ratio was no more than 0.25.

For WRGA, the enrichment ratio is no more than 0.25.

On to YTLQ, for which the enrichment ratio came out at 12.8.

On to IGNA, for which the enrichment ratio is no more than 0.25.

As to LKPA, the enrichment ratio was no more than 0.25.

Consider TIRM, for which the enrichment ratio is 5.12.

Take REKY: the enrichment ratio is no more than 0.25.

YCHC: the enrichment ratio was no more than 0.25.

As for MDDV, the enrichment ratio is no more than 0.25.

Turning to SLST, the enrichment ratio was determined as 2.81.

With NADY, the enrichment ratio is no more than 0.25.

As for FMKM, the enrichment ratio is no more than 0.25.

As to IEQP, the enrichment ratio is no more than 0.25.

As to TFYH, the enrichment ratio was no more than 0.25.

Consider GYEY, for which the enrichment ratio was no more than 0.25.

Consider QIYT, for which the enrichment ratio is 2.99.

Turning to SVDM, the enrichment ratio was no more than 0.25.

Consider RLHW, for which the enrichment ratio was no more than 0.25.

For DCDC, the enrichment ratio was no more than 0.25.

WLCH: the enrichment ratio was no more than 0.25.

On to NMMF, for which the enrichment ratio is no more than 0.25.

Regarding PQQP, the enrichment ratio was no more than 0.25.

For TLQH, the enrichment ratio was determined as 21.1.

Regarding YNYS, the enrichment ratio was no more than 0.25.

For the variant LQCN, the enrichment ratio was no more than 0.25.

For the variant FCLL, the enrichment ratio is 10.7.

For TMWS, the enrichment ratio is no more than 0.25.

STQP: the enrichment ratio was no more than 0.25.

Turning to GHYL, the enrichment ratio was found to be 0.671.

Consider TSPC, for which the enrichment ratio is no more than 0.25.

For the variant VKNM, the enrichment ratio is no more than 0.25.

Turning to RSQS, the enrichment ratio is no more than 0.25.

On to KPNC, for which the enrichment ratio was no more than 0.25.

Regarding DHLT, the enrichment ratio is no more than 0.25.

As for MPCY, the enrichment ratio is no more than 0.25.

As to HPFS, the enrichment ratio was no more than 0.25.

Turning to EPTK, the enrichment ratio was no more than 0.25.

Turning to LVVS, the enrichment ratio was no more than 0.25.

In the case of IISS, the enrichment ratio is no more than 0.25.

Turning to PVLP, the enrichment ratio is no more than 0.25.

With VNSP, the enrichment ratio is no more than 0.25.

For the variant SCAH, the enrichment ratio stood at 8.14.

As for SNLY, the enrichment ratio turned out to be 5.35.

As for AFAC, the enrichment ratio is no more than 0.25.

Consider LQDD, for which the enrichment ratio was no more than 0.25.

With WMLL, the enrichment ratio is no more than 0.25.

TWAE: the enrichment ratio was no more than 0.25.

In the case of RYPP, the enrichment ratio is no more than 0.25.

In the case of AYMQ, the enrichment ratio was found to be 0.322.

As to ESKH, the enrichment ratio is no more than 0.25.

With ASWS, the enrichment ratio was no more than 0.25.

Turning to IMTS, the enrichment ratio was no more than 0.25.

Consider MGVA, for which the enrichment ratio was no more than 0.25.

Regarding DPVC, the enrichment ratio is no more than 0.25.

QWNG: the enrichment ratio is no more than 0.25.

On to SHAS, for which the enrichment ratio is no more than 0.25.

In the case of GTRL, the enrichment ratio is no more than 0.25.

For IRMV, the enrichment ratio was no more than 0.25.

Consider YEQF, for which the enrichment ratio was no more than 0.25.

With LYNY, the enrichment ratio was no more than 0.25.

For AHKV, the enrichment ratio was no more than 0.25.

Consider VDSF, for which the enrichment ratio was no more than 0.25.

On to PTPR, for which the enrichment ratio is no more than 0.25.

For the variant AMWR, the enrichment ratio was no more than 0.25.

For the variant ELGR, the enrichment ratio was no more than 0.25.

In the case of SFYK, the enrichment ratio was no more than 0.25.

With QTYL, the enrichment ratio is 12.8.

With SMAS, the enrichment ratio stood at 11.6.

On to MVWK, for which the enrichment ratio was no more than 0.25.

As for MHMT, the enrichment ratio was no more than 0.25.

For the variant PVSV, the enrichment ratio was no more than 0.25.

For SFPD, the enrichment ratio is no more than 0.25.

For DAWI, the enrichment ratio was no more than 0.25.

Regarding DKPG, the enrichment ratio was no more than 0.25.

Take WYMN: the enrichment ratio is no more than 0.25.

In the case of TQMS, the enrichment ratio turned out to be 4.53.

As to HYEM, the enrichment ratio is no more than 0.25.

Turning to WCVF, the enrichment ratio was no more than 0.25.

As for AQTH, the enrichment ratio is no more than 0.25.

In the case of EHFG, the enrichment ratio is no more than 0.25.

Turning to GLCL, the enrichment ratio is 13.5.

Take SGSW: the enrichment ratio was no more than 0.25.

Regarding TDKA, the enrichment ratio is no more than 0.25.

For RPSM, the enrichment ratio is no more than 0.25.

As for KRVF, the enrichment ratio is no more than 0.25.

With SYFV, the enrichment ratio was no more than 0.25.

For SRWC, the enrichment ratio was no more than 0.25.

Regarding LEEP, the enrichment ratio is no more than 0.25.
